Measured values as given in the supplement of paper PMC7726561.
In all, about 1,100 sequences were measured (“thermal melting temperature (Tm) of peptide-HLA complex”: median about 58, lowest 2% from about 42 on). The list shows a part of the results.

B1: unnamed (peptide)
chain: ALSDLALHFL
B2: unnamed (peptide)
chain: LLDPSTPVHI
B3: unnamed (peptide)
chain: STFDHPELVKL
B4: unnamed (peptide)
chain: FLKNELDNV
B5: unnamed (peptide)
chain: TLWYRPPEL
B6: unnamed (peptide)
chain: KILPTLEAV
B7: unnamed (peptide)
chain: ILLEHGADPNL
B8: unnamed (peptide)
chain: ILFPDIIARA
B9: unnamed (peptide)
chain: ILQEREYRL
B10: unnamed (peptide)
chain: VLLGKVYVV
B11: unnamed (peptide)
chain: FLNPDEVHAI
B12: unnamed (peptide)
chain: SLTGHISTV
B13: unnamed (peptide)
chain: FLDEEVKLI
B14: unnamed (peptide)
chain: SLQTRLIFL
B15: unnamed (peptide)
chain: SIAPRMMSV
B16: unnamed (peptide)
chain: NIVERLKEV
B17: unnamed (peptide)
chain: FLIEGTISRA
B18: unnamed (peptide)
chain: ILGPKPQGV
B19: unnamed (peptide)
chain: QLLETLNQL
B20: unnamed (peptide)
chain: SLLENLEKI
B21: unnamed (peptide)
chain: SLLTHIPTA
B22: unnamed (peptide)
chain: SLAGSLRSV
B23: unnamed (peptide)
chain: YMLDLQKQL
B24: unnamed (peptide)
chain: ILENPPEEMKL
B25: unnamed (peptide)
chain: YLMEGSYNKV
B26: unnamed (peptide)
chain: HIADVSHFI
B27: unnamed (peptide)
chain: FLSELTQQL
B28: unnamed (peptide)
chain: LLNDHIYVV
B29: unnamed (peptide)
chain: ALLDQALSNA
B30: unnamed (peptide)
chain: KILPDLNTV
B31: unnamed (peptide)
chain: VILEGELERA
B32: unnamed (peptide)
chain: VMFEDGVLMRL
B33: unnamed (peptide)
chain: QLYEFDIKV
B34: unnamed (peptide)
chain: VIINQIYEA
B35: unnamed (peptide)
chain: FIFEKKLAQA
B36: unnamed (peptide)
chain: FLTEMELDRV

These sequences were tested against HLA-A*02:01 (assay: thermal melting temperature (Tm) of peptide-HLA complex; higher = more thermostable pHLA complex). Conditions: C1R-A*02:01.
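Note: cell lysates heated 10 min at 37–73 °C, remaining pHLA pulled down with pan-class I antibody, peptides quantified by DIA-MS versus 37 °C, Tm where half the complex is lost.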

Sequence | thermal melting temperature
B1 | 52.6 °C
B2 | 50 °C
B3 | 46.4 °C
B4 | 59.7 °C
B5 | 57.1 °C
B6 | 60.6 °C
B7 | 51.4 °C
B8 | 55.7 °C
B9 | 58.7 °C
B10 | 63.4 °C
B11 | 59.9 °C
B12 | 58.2 °C
B13 | 44.5 °C
B14 | 50.6 °C
B15 | 48.1 °C
B16 | 59.5 °C
B17 | 61.1 °C
B18 | 59.9 °C

Sequence | thermal melting temperature
B19 | 41.4 °C
B20 | 63.3 °C
B21 | 59.5 °C
B22 | 59.7 °C
B23 | 55.3 °C
B24 | 52.1 °C
B25 | 58 °C
B26 | 55.3 °C
B27 | 59.5 °C
B28 | 62.4 °C
B29 | 57.2 °C
B30 | 56.8 °C
B31 | 56.7 °C
B32 | 52.3 °C
B33 | 58.1 °C
B34 | 58 °C
B35 | 49.6 °C
B36 | 58.4 °C
